172 sequences from publication PMC6212790 can be followed below.

This is one part of the list. At the low end of the ranking, values are background and their order means little.

This experiment concerns the target T1, GST-Rok (full length) (UniProt O34857).
T1 sequence: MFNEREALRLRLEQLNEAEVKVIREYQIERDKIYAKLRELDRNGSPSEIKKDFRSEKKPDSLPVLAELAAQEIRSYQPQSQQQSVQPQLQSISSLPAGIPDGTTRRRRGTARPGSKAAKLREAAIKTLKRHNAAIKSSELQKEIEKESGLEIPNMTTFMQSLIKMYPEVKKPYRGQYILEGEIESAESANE
Nature of the experiment: protein binding microarray.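 Further: rank score from −0.5 (least bound) to 0.5 (best bound).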 The settings on record: Rok is a gene silencer of Bacillus subtilis; high values mean tight binding; most listed sequences are background and not binding sites; double strand, one strand shown.
GAAGGTTA showed a binding signal of -0.0133 E-score.

Take GAGTATCA: the binding signal amounted to 0.0743 E-score. As for CGCTAGGA, the figure is -0.0379 E-score; as for AGGGGTCG, -0.41 E-score. As for AGTAACGC, the figure is 0.107 E-score; as for GCCTTCGA, -0.213 E-score; as for ACGTAACC, -0.21 E-score. The sequence CCGGAAAA registered a binding signal of -0.0426 E-score.

GGGCTAAC gave a binding signal of -0.00447 E-score. Take AAGCGTTC: the binding signal is -0.218 E-score. CGAGATCC showed a binding signal of 0.0734 E-score.

In turn, AGCAAGTC registered a binding signal of -0.205 E-score. As for GGGGGAGA, the figure is -0.238 E-score; as for GAGGAGAC, -0.267 E-score; as for AGTGTTAT, 0.145 E-score. TCCACAAA: the binding signal worked out at 0.0863 E-score. Take AAAGTGAC: the binding signal came out at 0.0309 E-score. ATCCGGGA displayed a binding signal of -0.0797 E-score. The same measure for GACTTAAC: 0.0786 E-score; for AGAGTGCG: -0.14 E-score.

As for ACTCACCC, the binding signal was -0.14 E-score. The same measure for ACAGAATA: 0.143 E-score. The same measure for ATATCCAA: 0.135 E-score; for AATGATGG: 0.0224 E-score; for CGACTTGA: 0.119 E-score. GAGTGAAC returned a binding signal of -0.108 E-score. As for GGCGCGCC, the figure is -0.375 E-score; as for AAGTGAAG, -0.0614 E-score. The same measure for GTAGATCA: 0.255 E-score.

In the case of AACTACTA, the binding signal turned out to be 0.474 E-score. As for ACATTTGA, the figure is 0.0427 E-score.

Consider TCTGTGAA, for which the binding signal was -0.0561 E-score.

For AAGGTGCA, the binding signal is -0.13 E-score. In turn, ATCGAAGG showed a binding signal of -0.188 E-score. Sequence CTGGGGGC displayed a binding signal of -0.401 E-score.

Sequence GTAAGGAA gave a binding signal of -0.159 E-score. As for ACAGTTAG, the figure is 0.194 E-score.

GAATGGCA yielded a binding signal of 0.0076 E-score. As for AGAAACAT, the figure is 0.155 E-score; as for AAAGCCCC, -0.362 E-score. As for GGCTACTA, the figure is 0.015 E-score; as for ACTAGTTA, 0.44 E-score. The same measure for AAGTCCCA: -0.198 E-score; for AGTACGTA: 0.332 E-score.

As to CTGCTAAA, the binding signal is -0.121 E-score. The same measure for AGCAGATA: 0.131 E-score; for GAGTGATC: -0.15 E-score; for CTAAGGGC: -0.245 E-score. The same measure for CGTTACCC: -0.276 E-score; for GAAACCAC: 0.0661 E-score. In the case of AATGGCAT, the binding signal stood at 0.0869 E-score.

On to GAACCGAA, for which the binding signal is -0.116 E-score.

As for ACCGTTCG, the binding signal is -0.278 E-score. Sequence AAAAGCAA returned a binding signal of -0.000488 E-score. As for AGCAAACA, the figure is -0.0161 E-score.

For ACCTCTGC, the binding signal is -0.0747 E-score. GCCACCAA came in with a binding signal of -0.0714 E-score. As to GTTCGCGA, the binding signal is -0.00446 E-score. The same measure for TAAGCCCA: -0.183 E-score; for CATGGTCC: -0.277 E-score; for CTACGCGA: -0.00796 E-score. The same measure for AGGTTCCC: -0.341 E-score; for CTAAGTCA: 0.0393 E-score; for AGACCAAT: -0.0485 E-score. In turn, ACATCTAA came in with a binding signal of 0.123 E-score. As for CTGTGCTC, the figure is -0.274 E-score; as for ACAGTAGG, 0.221 E-score; as for TCAACTGA, 0.0834 E-score. Consider AACTATTA, for which the binding signal was 0.431 E-score. The same measure for GCTCGACC: -0.197 E-score. The sequence AAAGGTAC displayed a binding signal of 0.223 E-score.

CGCGCAGA: the binding signal was -0.0557 E-score. In the case of GACTGAAC, the binding signal came to 0.0317 E-score.

Sequence ATTTTCGC returned a binding signal of 0.0459 E-score. Consider GCATAAGC, for which the binding signal was -0.0954 E-score. As for GGGCGAAC, the figure is -0.258 E-score; as for CCGGACCA, -0.244 E-score. CGCCGTAG: the binding signal is -0.119 E-score. With GCTCGTTA, the binding signal was -0.119 E-score. In turn, ATTTTACC returned a binding signal of 0.351 E-score. AGGCTCAG registered a binding signal of -0.242 E-score.

In turn, ACTACCGA registered a binding signal of 0.246 E-score. Take CAAGGCAG: the binding signal is -0.148 E-score. The sequence CAAATTGA displayed a binding signal of 0.0439 E-score. The same measure for GTTATACA: 0.213 E-score; for AGATCAGG: -0.0342 E-score; for CCCTCAGG: -0.44 E-score. Sequence CCCAAATC displayed a binding signal of -0.143 E-score. The same measure for ACCAGCCT: 0.00892 E-score; for CCCGGCAG: -0.105 E-score; for TCAGTACA: 0.141 E-score. For the sequence ATCTCAAG, the binding signal is -0.081 E-score. As for GTTCTTGA, the figure is -0.0529 E-score; as for GGAATTCA, -0.0849 E-score.

Turning to TACAGTGA, the binding signal was determined as 0.0355 E-score. Sequence TCCTACCA came in with a binding signal of 0.175 E-score. As for ATCTGCGG, the figure is -0.237 E-score. On to CTAGGCAC, for which the binding signal was -0.0526 E-score. AAAGTCAC yielded a binding signal of -0.0982 E-score. CAGGGTCC had a binding signal of -0.336 E-score. The sequence CCTTTCCG displayed a binding signal of -0.184 E-score. The same measure for CCAGAATC: -0.034 E-score; for CCCCCTTA: -0.398 E-score. AACAGAGC yielded a binding signal of 0.0781 E-score. The same measure for AGCCAGCG: -0.123 E-score; for CGGACCGC: -0.217 E-score; for AGCGCATG: 0.0184 E-score. The same measure for CTCTAGAA: 0.0532 E-score. The same measure for AGATGGCG: 0.046 E-score; for TAGTCAGA: -0.138 E-score; for GAGAGTTA: 0.13 E-score. Turning to AACGGTTA, the binding signal was -0.137 E-score.

ATAAGTCA showed a binding signal of 0.16 E-score. The same measure for GGGACCTA: -0.0617 E-score. In turn, CTCTACTA showed a binding signal of 0.216 E-score. The same measure for CGACCTTA: 0.0197 E-score; for ATCGGCGC: -0.0302 E-score. As for ATCGACTA, the figure is 0.144 E-score; as for ACGGCGCA, -0.225 E-score.

For ATTTAACA, the binding signal is 0.223 E-score. In turn, CTAAGACA showed a binding signal of -0.139 E-score. ATGGGAAC: the binding signal is -0.0776 E-score. For GTATAAAA, the binding signal was found to be 0.343 E-score. As for TGACCACA, the figure is -0.252 E-score.

AAAAACGG displayed a binding signal of -0.143 E-score. As for ATCTGCAA, the figure is 0.08 E-score; as for GGCTGGAA, -0.115 E-score. The same measure for ACAGCAGA: -0.111 E-score; for TAAACGAA: -0.00162 E-score. The sequence GGGGTTGA showed a binding signal of -0.324 E-score.

As for AAGAGTGC, the binding signal is -0.116 E-score. As for AAATACTA, the figure is 0.454 E-score; as for TCACCCCA, -0.167 E-score; as for CTCGGAGA, -0.0958 E-score. The same measure for CTCTATCA: -0.0321 E-score; for CACGCGGC: -0.307 E-score. As for ATGGCATA, the figure is 0.0465 E-score. AGGTGCTA returned a binding signal of -0.0307 E-score. On to CTCCCTGA, for which the binding signal is -0.357 E-score. The sequence ACTATCAC returned a binding signal of 0.34 E-score. With CAGTACCG, the binding signal was -0.00989 E-score. As for CTCCGACC, the figure is -0.373 E-score. On to TCTAATCA, for which the binding signal was -0.00524 E-score. In the case of GTGGCAAA, the binding signal came out at 0.0549 E-score. CAAAGCCG: the binding signal is -0.148 E-score. TCACCTCA returned a binding signal of -0.21 E-score. Take AATCACAT: the binding signal came to 0.174 E-score. GCCTGTGA came in with a binding signal of -0.0124 E-score. In turn, TCGGAGAA had a binding signal of 0.0242 E-score. Sequence AATCTTCC returned a binding signal of 0.0657 E-score. Turning to AACCTTCC, the binding signal was -0.0451 E-score.

Consider CTTTCTAA, for which the binding signal is 0.162 E-score. As for CAAGCGGC, the figure is 0.0248 E-score; as for AGTGGCTA, -0.191 E-score; as for CGCCATCA, -0.202 E-score. As for GCGCACCA, the binding signal is -0.0364 E-score. Regarding ACAGTTGC, the binding signal was -0.0916 E-score. As for AGCTAAAG, the figure is -0.152 E-score; as for TAGCTCAA, 0.0254 E-score; as for TCGAGGCA, -0.0118 E-score.

Sequence ACCAACAA had a binding signal of -0.105 E-score.

The sequence GATACAGC returned a binding signal of 0.0853 E-score. As for CAGAAGAC, the figure is -0.144 E-score; as for AAGGGCTC, -0.237 E-score; as for CATATGCG, 0.0597 E-score. The sequence CGGGGCGC came in with a binding signal of -0.268 E-score.

As to AGTTTGCG, the binding signal was 0.256 E-score.

As to CGTAGAGC, the binding signal is -0.115 E-score.

In the case of AGTTCACA, the binding signal was 0.171 E-score. Take AACAATCC: the binding signal amounted to 0.165 E-score.

In turn, CTATGAAG displayed a binding signal of 0.0749 E-score.

CTGACCAA: the binding signal stood at 0.0177 E-score.
